The text below walks through data of PubChem BioAssay AID1346428 (National Center for Advancing Translational Sciences (NCATS), 2018).

Hit rate of the full screen: of about 48,000 compounds, about 1,200 (2.5%) were called active. Inconclusive results (about 2%) are left out.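 How the source made its calls: active means activation of at least 60% and not above a set upper limit (about 1 call in 100 departs from these limits); inconclusive means activation of 40% to 60%, or above that upper limit; inactive means activation under 40%.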 Some of the results follow.

UniProt O75388, sequence (O75388 whole entry, looked up): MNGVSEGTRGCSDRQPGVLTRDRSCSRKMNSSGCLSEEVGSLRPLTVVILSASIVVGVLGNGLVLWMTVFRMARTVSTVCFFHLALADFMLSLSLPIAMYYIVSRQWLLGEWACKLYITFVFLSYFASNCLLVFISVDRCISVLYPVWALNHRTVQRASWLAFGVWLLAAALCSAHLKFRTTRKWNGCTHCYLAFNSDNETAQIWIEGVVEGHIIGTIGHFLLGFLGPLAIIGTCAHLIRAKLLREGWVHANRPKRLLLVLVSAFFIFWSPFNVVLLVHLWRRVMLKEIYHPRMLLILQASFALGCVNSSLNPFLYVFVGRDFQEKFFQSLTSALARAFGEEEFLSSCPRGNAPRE

The experiment addresses Probable G-protein coupled receptor 32 (Homo sapiens) (UniProt O75388). Briefly: qHTS for Agonists of Human Resolvin D1 Receptor DRV1. Further: 0% is about no effect. The note with it: CHO-K1 GPR32 beta-arrestin PathHunter luminescence, 90 min; at 76.9 µM; active compounds read high; zero percent set by DMSO-only wells. The method in brief:
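CHO-K1 cells stably expressing ProLink-tagged GPR32 and Enzyme Activator-tagged beta-arrestin were seeded at 2,500 cells/well overnight, exposed to compounds for 90 min at 37 °C, then read by beta-Gal complementation chemiluminescence after 1 h detection reagent.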
Background: In qHTS, concentration-response curves come from the screen itself.
Take `CCn1c(=O)cc(SCC(=O)NCc2ccc(Cl)cc2)c2ccccc21`: the activation was inactive: -7.07%.

In the case of `Cc1ccc(CNC(=O)CSc2nnc(C)c3c(C)n(-c4ccccc4)nc23)cc1`, the activation was inactive: 0.539%.

Regarding `CC1CCN(S(=O)(=O)c2ccc3c(ccc(=O)n3CC(=O)NCc3ccccc3Cl)c2)CC1`, the activation is inactive: -7.22%.

For `Cc1ccc(/C=C(\C#N)C(=O)Nc2cccc(Cl)c2)o1`, the activation is inactive: -8.67%.

Consider `COc1ccc(CCNC(=O)C2CCN(Cc3nc(-c4ccc(OC)c(OC)c4)oc3C)CC2)cc1OC`, for which the activation was inactive: -3.09%.

On to `O=C(NCCn1cc(SCc2ccc(Br)cc2)c2ccccc21)c1cccs1`, for which the activation is inactive: -18.4%.

`CCCC(=O)N1CCc2cc(OC)c(OC)cc2C1COc1ccc(C(=O)OC)cc1` (stereo not drawn): the activation was inactive: 40.7%.

With `CCC1Oc2ccccc2N(CC(=O)NCc2cc(OC)ccc2OC)C1=O` (stereo not drawn), the activation is inactive: -1.05%.

Consider `CCN(CC)C(=O)Cn1c(=O)n(CC2CCC(C(=O)NC)CC2)c(=O)c2sccc21` (stereo not drawn), for which the activation was inactive: 1.59%.

Regarding `CCOc1ccccc1-c1nc(Cn2c(=O)cc(C)c3c(C)nn(-c4ccccc4)c32)c(C)o1`, the activation was inactive: -7.43%.

With `Cc1cc(C)cc(OCCCn2c(-c3ccc(Cl)cc3)nc3ccccc3c2=O)c1`, the activation was inactive: -0.704%.

`COc1ccc(C(CC(=O)NCc2ccc(Cl)cc2)N2Cc3ccccc3C2=O)cc1OC` (stereo not drawn): the activation is inactive: -20.4%.

On to `COC(=O)c1sc(-c2ccccc2)cc1NC(=O)Nc1ccc(F)cc1`, for which the activation was inactive: -19.4%.

`Cc1cc(C)cc(NC(=O)C2CCCN2S(=O)(=O)c2ccc3nc(-c4ccccc4)[nH]c3c2)c1` (stereo not drawn): the activation is inactive: -15.6%.

In the case of `COCCNC(=O)CCCn1c(SCC(=O)c2ccc(Br)cc2)nc2c(sc3ccccc32)c1=O`, the activation was inactive: -21.6%.

For the compound `O=c1c2ccccc2n(Cc2c(F)cccc2Cl)c(=O)n1CCc1ccccc1`, the activation was inactive: -21.9%.

Consider `Cc1cc2c(cc3c(SCc4ccc(Cl)cc4)nncn32)o1`, for which the activation was inactive: 40%.

For the compound `COc1ccc(C)cc1NC(=O)c1cnc2ccc(C)cn2c1=O`, the activation is inactive: 0.61%.

`CCOc1cc(C2c3c(oc4ccccc4c3=O)C(=O)N2Cc2ccc(OC)cc2)ccc1O` (stereo not drawn): the activation was inactive: -6.81%.

With `Cc1ccn2c(=O)cc(COc3ccc(NC(=O)COc4ccc(C)c(C)c4)cc3)nc2c1`, the activation was inactive: 3.16%.

On to `Cc1ccc(OCC(=O)NCC(c2ccc(Cl)cc2)N2CCOCC2)cc1C` (stereo not drawn), for which the activation is inactive: -22.5%.

As for `Cc1cccc(Nc2c(-c3ccsc3)nc3nc(C)cc(C)n23)c1`, the activation was inactive: -29.7%.

Consider `O=C(CCCCn1c(=O)c2ccccc2n(Cc2cccc(F)c2)c1=O)NCc1ccc2c(c1)OCO2`, for which the activation was inactive: -2.31%.

For `Cc1ccc(-c2nc3c4ccccc4n(CC(=O)NCc4ccc(F)cc4)c(=O)n3n2)cc1`, the activation was inactive: -4.1%.

Consider `O=C(O)c1ccc2nc(-c3cc4cc(Cl)ccc4oc3=O)[nH]c2c1`, for which the activation was inactive: -2.99%.

`Cc1ccc(C(=O)c2oc3ccccc3c2NC(=O)Cc2coc3ccc(C)cc23)cc1`: the activation was inactive: -2.85%.

Turning to `COc1ccc(-n2cnc3cc(C(=O)NC4CCCCCC4)ccc32)cc1`, the activation is inactive: -3.5%.

Turning to `CCOC(=O)c1c(C)[nH]c(C)c1S(=O)(=O)N(C)CC(=O)NCc1ccc(Cl)cc1`, the activation was inactive: 9.19%.

As for `O=C1COc2cc(S(=O)(=O)CCC(=O)NC3CCCCC3)c(Cl)cc2N1`, the activation was inactive: 9.78%.

For `COc1ccc(C)cc1-n1cnc2cc(C(=O)NC3CCCCCC3)ccc21`, the activation is inactive: -14.8%.

For `Cc1ccc2onc(CNC(=O)NCc3ccc(Cl)cc3)c2c1`, the activation is inactive: 12.5%.

On to `CCc1nc(-c2cc(S(=O)(=O)N3CCN(c4ccccc4)CC3)ccc2OC)no1`, for which the activation is inactive: -1.44%.

As to `CCc1nn(CC(=O)NCCCN(CC)CC)c(=O)c2cc3occc3n12`, the activation was inactive: -6.47%.

On to `COc1cccc(CNC(=O)CN2C(=O)N(c3ccc(C)cc3C)S(=O)(=O)c3ccccc32)c1OC`, for which the activation is inactive: -4.96%.

Turning to `Cn1c(SCC(=O)Nc2nc3ccccc3s2)ncc(C(=O)Nc2ccccc2)c1=O`, the activation was inactive: -6.09%.

Regarding `CCSc1ncc(Cl)c(C(=O)Nc2c(C(=O)Nc3ccccc3)oc3ccccc23)n1`, the activation was inactive: -6.66%.

Turning to `CCOc1ccc(CCNC(=O)CCCc2nnc3n(CC)c(=O)c4sccc4n23)cc1`, the activation is inactive: -0.849%.

Turning to `O=C(CSc1nccn1-c1cccc(Cl)c1)Nc1cccc2ccccc12`, the activation was inactive: -13.3%.

Take `COc1cccc(C(=O)Nc2cccc(-c3nc4ncccn4c3C)c2)c1`: the activation is active: 61.5%.

With `Cn1c(=O)c2c(-c3ccc(Br)cc3)n(Cc3ccc(F)cc3)cc2n(C)c1=O`, the activation is inactive: 0.997%.

Take `COc1ccc(-c2nc3cc(C)ccn3c2NC(=O)c2cccc(F)c2)cc1`: the activation is inactive: -37%.

On to `COc1ccc(C(=O)N2CCc3cc(OC)c(OC)cc3C2COc2ccccc2OC)cc1` (stereo not drawn), for which the activation was inactive: -9.59%.

Turning to `COC(=O)c1c(C)sc(-c2c(-c3cccc(OC)c3)[nH]c3c2c(=O)[nH]c(=O)n3C)c1O`, the activation is inactive: -13.9%.

In the case of `CC(=O)Nc1ccc(S(=O)(=O)NC2(C(F)(F)F)NC(=O)N(c3ccc(Cl)cc3)C2=O)cc1` (stereo not drawn), the activation was inactive: 1.24%.

For the compound `CCCCN(CC)C(=O)Nc1ccc2c(c1)N(C)C(=O)c1ccccc1S2`, the activation was inactive: -23.8%.

For `O=C(Nc1ccc(Cl)c(Cl)c1)C1CC1`, the activation was active: 82.6%.

On to `CCCn1c(=O)c2sccc2n2c(CCCC(=O)Nc3ccc(C)c(F)c3)nnc12`, for which the activation is inactive: -11.8%.

As for `COc1ccc(C)c2sc(N(Cc3cccnc3)C(=O)CCc3ccccc3)nc12`, the activation is inactive: -10.4%.

For the compound `COc1ccc(-c2noc(CN3CCN(c4ccccc4OC)CC3)n2)cc1OC`, the activation is inactive: 17.9%.

Take `Cc1ccc(C(=O)COC(=O)c2cc(-c3ccc(Cl)cc3)nc3ccccc23)cc1`: the activation was inactive: 24.5%.

For the compound `CCc1nnc(SCC(=O)Nc2cc(Cl)c(OC)cc2OC)c2cc3oc(C)cc3n12`, the activation was inactive: -0.0402%.

Regarding `COc1cccc(N2CC(NC(=O)COc3ccc4ccccc4c3)CC2=O)c1` (stereo not drawn), the activation is inactive: -11.2%.

Consider `COc1ccc(OC)c(-c2noc(CSc3nnc(Cc4ccccc4)n3-c3cccc(C)c3)n2)c1`, for which the activation is inactive: -18.4%.

Regarding `Cc1noc2nc(C(=O)O)nc(N3CCCCC3)c12`, the activation was inactive: 3.91%.

In the case of `Cn1cc(S(=O)(=O)c2ccccc2)c(=O)c2cc(F)c(N3CCCCC3)cc21`, the activation is inactive: -3.62%.

As for `CC(=O)c1ccc(NC(=O)CCn2nc(C)c(S(=O)(=O)N3CCC(C)CC3)c2C)cc1`, the activation was inactive: -12.9%.

As to `CC1CCC(NC(=O)Cn2ncc3c4ccccc4n(Cc4ccc(Cl)cc4)c3c2=O)CC1` (stereo not drawn), the activation was inactive: -6.08%.

In the case of `Cc1ccc(S(=O)(=O)c2c(Nc3cccc(Cl)c3)sc(C(=O)c3ccc4c(c3)OCO4)c2N)cc1`, the activation is inactive: -1.8%.

Consider `CCOc1ccc(NC(=O)CSC2=Nc3ccccc3C3=NC(CC(=O)NCc4ccc5c(c4)OCO5)C(=O)N23)cc1` (stereo not drawn), for which the activation is inactive: 8.47%.

With `O=C(NCc1ccccc1Cl)c1ccc(NC(=O)N2CCCCc3ccccc32)cc1`, the activation was inactive: -5.23%.

On to `Cc1ccc(C(=O)c2oc3ccccc3c2NC(=O)Cc2coc3c(C)c(C)ccc23)cc1`, for which the activation was inactive: -5.02%.

Turning to `COc1cc(C)ccc1OCCSc1nnc(-c2ccc(C)cc2)o1`, the activation was inactive: 3.21%.

On to `O=C(OCc1cc(=O)n2c3c(sc2n1)CCCC3)c1cccc(NC(=O)c2ccccc2F)c1`, for which the activation was inactive: -28%.

Regarding `COc1ccc(-c2nc3ccccc3n2Cc2ccc(Cl)cc2)cc1`, the activation is inactive: -0.196%.

For `Cc1cccc(NC(=O)CN(C)S(=O)(=O)c2ccc3c(c2)c(=O)n(C)c(=O)n3C)c1`, the activation was inactive: 11.8%.

With `COc1ccccc1C(=O)Nc1ccc(-c2nc3ccccc3s2)c(C)c1`, the activation is inactive: -10%.

For the compound `Cc1cc(Br)ccc1NC(=O)C1(S(=O)(=O)c2ccc(Cl)cc2)CC1`, the activation was inactive: -13.9%.

Take `O=C(NCCS(=O)(=O)N1CCN(c2ccccc2)CC1)C1CC(=O)N(c2ccccc2)C1` (stereo not drawn): the activation is inactive: -19.6%.

For `CC1CCCCN1CC(=O)N1CCCc2c1c(=O)oc1ccc(OCc3ccccc3)cc21` (stereo not drawn), the activation is inactive: -1.28%.

Consider `Cc1ccc(-c2cc(C(=O)N(Cc3ccccc3)Cc3ccco3)no2)cc1F`, for which the activation is inactive: -6.53%.

On to `CCOc1ccc(CCNc2nc3c(-c4ccc(C)cc4)nnn3c3ccccc23)cc1OCC`, for which the activation was inactive: 7.35%.

On to `Cc1ccc(-c2ccc(=O)n(CC(=O)Nc3ccc(F)c(Cl)c3)n2)cc1C`, for which the activation was inactive: 2.32%.

In the case of `COc1ccc(-c2nc(CNS(=O)(=O)c3ccc(C)cc3)cs2)cc1`, the activation was inactive: -3.2%.

Regarding `COc1ccccc1C(=O)Nc1nnc(S(=O)(=O)N2CCCCCC2)s1`, the activation is inactive: 6.36%.

`CCOc1ccccc1C(=O)Nc1ccc(S(=O)(=O)N2CCCCC2c2cccnc2)cc1` (stereo not drawn): the activation was inactive: 24.6%.

Regarding `COc1cccc(NC(=O)CSC2=Nc3ccccc3C3=NC(CCC(=O)NCc4ccco4)C(=O)N23)c1` (stereo not drawn), the activation is inactive: -27.6%.

`COc1ccc(S(=O)(=O)c2c(SC)nn(Cc3ccccc3C)c2NC(C)=O)cc1`: the activation was inactive: -1.11%.

For the compound `Cn1nc(C(=O)N2CCN(c3ccccc3)CC2)c2c1-c1ccccc1S(=O)(=O)C2`, the activation is inactive: -7.79%.

For the compound `COc1ccc(C)cc1NC(=O)c1ccc2c(Cl)c3c(nc2c1)CCC3`, the activation is inactive: 13.8%.

For the compound `O=C(O)c1cn(C2CC2)c2cc(Cl)c(F)cc2c1=O`, the activation was inactive: -4.71%.

As to `O=C(CSc1nc2c([nH]c3ccccc32)c(=O)n1-c1ccccc1)N1CCCC1`, the activation is inactive: -29%.

Take `CCOC(=O)C1CCCN(C(=O)c2ccc3c(c2)N(Cc2ccccc2)C(=O)c2ccccc2S3=O)C1` (stereo not drawn): the activation was inactive: -3.64%.

As to `CCCN1CCCc2cc(CN(CCCN3CCOCC3)C(=O)Nc3ccc(CC)cc3)ccc21`, the activation is active: 61.3%.
